Reference: patent US20170226204A1 (PERONGEN BIOTHERAPEUTICS SUZHOU, published 2017)

T1: human CD7 molecule (human, UniProt P09564 26-240)
T1 construct: whole, on cells; also called CD7 protein
T1 sequence (looked up): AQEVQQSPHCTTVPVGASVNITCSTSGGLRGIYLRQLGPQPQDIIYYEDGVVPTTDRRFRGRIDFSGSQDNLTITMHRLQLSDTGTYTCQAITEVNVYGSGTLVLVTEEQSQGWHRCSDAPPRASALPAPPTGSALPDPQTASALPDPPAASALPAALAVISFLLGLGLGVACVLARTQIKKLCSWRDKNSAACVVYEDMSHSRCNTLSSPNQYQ

B1: nanobody VHH-10 (clone 2) (VHH, not shown: small tags and cut ends)
VHH: DVQLQESGGGSVQAGGSLRLSCAASGYTHSSYCMAWFRQAPGREREGVASIDSDGTTSYADSVKGRFTISQDNAKNTLYLQMNSLKPEDTAMYYCAARFGPMGCVDLSTLSFGHWGQGTQVTVSI
notes: also called clone VHH-10
B2: nanobody VHH-6 (clone 5) (VHH, not shown: small tags and cut ends)
VHH: DVQLQESGGGLVQAGGSLRLSCAVSGYPYSSYCMGWFRQAPGKEREGVAAIDSDGRTRYADSVKGRFTISQDNAKNTLYLQMNRMKPEDTAMYYCAARFGPMGCVDLSTLSFGHWGQGTQVTVSI
notes: also called clone VHH-6; parental nanobody VHH6

Biological target: T1, human CD7 molecule
Assay: flow cytometry saturation binding on CD7-positive Jurkat cells, APC anti-HA detection

Row | Binder | Kd [µM]
1 | B1 | 0.0296
2 | B2 | 0.0154
